For 153 variants, enrichment ratio results are on record in a collection of fitness landscapes (doi:10.1126/science.1257360).

The list shows a part of the results.

First the molecules themselves.
B1: PhoQ; a variant is named by its letters at X, in order, P23837 (parent)
chain: MKKLLRLFFPLSLRVRFLLATAAVVLVLSLAYGMVALIGYSVSFDKTTFRLLRGESNLFYTLAKWENNKLHVELPENIDKQSPTMTLIYDENGQLLWAQRDVPWLMKMIQPDWLKSNGFHEIEADVNDTSLLLSGDHSIQQQLQEVREDDDDAEMTHSVAVNVYPATSRMPKLTIVVVDTIPVELKSSYMVWSWFIYVLSANLLLVIPLLWVAAWWSLRPIEALAKEVRELEEHNRELLNPATTRELTSLVRNLNRLLKSERERYDKYRTTLTDLTHSLKTPLXXLQXXLRSLRSEKMSVSDAEPVMLEQISRISQQIGYYLHRASMRGGTLLSRELHPVAPLLDNLTSALNKVYQRKGVNISLDISPEISFVGEQNDFVEVMGNVLDNACKYCLEFVEISARQTDEHLYIVVEDDGPGIPLSKREVIFDRGQRVDTLRPGQGVGLAVAREITEQYEGKIVAGESMLGGARMEVIFGRQHSAPKDE

This assay covers variants of B1. Description: enrichment ratio after two sorts for PhoP signalling (ratio (wild type AVST 3.29)); higher = more functional. To be noted: with PhoP (E. coli).
With IWWF, the enrichment ratio is no more than 0.25.

Take THAN: the enrichment ratio came to 13.2.

As for KRLL, the enrichment ratio was no more than 0.25.

For RTIS, the enrichment ratio was no more than 0.25.

In the case of LCQK, the enrichment ratio is no more than 0.25.

Take QMAT: the enrichment ratio is no more than 0.25.

With YHSH, the enrichment ratio is 0.303.

Consider AMVF, for which the enrichment ratio was 4.49.

Consider WVLH, for which the enrichment ratio was no more than 0.25.

As to HTCA, the enrichment ratio is no more than 0.25.

For the variant SHKR, the enrichment ratio is no more than 0.25.

For the variant LPFS, the enrichment ratio is no more than 0.25.

For ARKN, the enrichment ratio was no more than 0.25.

As to WNCN, the enrichment ratio was no more than 0.25.

With NPVQ, the enrichment ratio is no more than 0.25.

Take FQDP: the enrichment ratio was no more than 0.25.

Turning to NGGT, the enrichment ratio is no more than 0.25.

For the variant WEAI, the enrichment ratio was no more than 0.25.

SITM: the enrichment ratio is 22.9.

Turning to LIGV, the enrichment ratio was no more than 0.25.

For the variant ESTD, the enrichment ratio is no more than 0.25.

As for LWNL, the enrichment ratio was no more than 0.25.

Regarding EQTL, the enrichment ratio is no more than 0.25.

Regarding YMRA, the enrichment ratio was no more than 0.25.

In the case of ASTR, the enrichment ratio was no more than 0.25.

In the case of LQGV, the enrichment ratio was no more than 0.25.

On to YILT, for which the enrichment ratio amounted to 0.863.

On to YERG, for which the enrichment ratio is no more than 0.25.

For SEWA, the enrichment ratio is no more than 0.25.

As to EPRT, the enrichment ratio was no more than 0.25.

For EMQA, the enrichment ratio is no more than 0.25.

In the case of LWTC, the enrichment ratio is no more than 0.25.

Take YAWA: the enrichment ratio was no more than 0.25.

As for KKCI, the enrichment ratio is no more than 0.25.

On to DKWQ, for which the enrichment ratio was no more than 0.25.

Regarding ILLH, the enrichment ratio was no more than 0.25.

For LAVC, the enrichment ratio is no more than 0.25.

As for SDWR, the enrichment ratio was no more than 0.25.

In the case of FHKD, the enrichment ratio was no more than 0.25.

Turning to CSSA, the enrichment ratio was no more than 0.25.

For RIMI, the enrichment ratio is no more than 0.25.

On to TVYK, for which the enrichment ratio amounted to 3.76.

With WKRA, the enrichment ratio is no more than 0.25.

Regarding MCAT, the enrichment ratio was 4.13.

As to EQRV, the enrichment ratio is no more than 0.25.

In the case of GSVY, the enrichment ratio was no more than 0.25.

GAGD: the enrichment ratio was no more than 0.25.

DKYM: the enrichment ratio was no more than 0.25.

As for NIKL, the enrichment ratio is no more than 0.25.

On to YQIS, for which the enrichment ratio is no more than 0.25.

Consider AFED, for which the enrichment ratio is no more than 0.25.

Take AWSC: the enrichment ratio is no more than 0.25.

For SILC, the enrichment ratio stood at 8.13.

Turning to DYTN, the enrichment ratio was no more than 0.25.

Turning to NWIN, the enrichment ratio was no more than 0.25.

In the case of IMCR, the enrichment ratio was no more than 0.25.

As for GFPM, the enrichment ratio was no more than 0.25.

As for MYIV, the enrichment ratio was no more than 0.25.

With HFNS, the enrichment ratio was no more than 0.25.

As to GAGF, the enrichment ratio was no more than 0.25.

On to KCAT, for which the enrichment ratio was no more than 0.25.

Regarding AYKR, the enrichment ratio was no more than 0.25.

With WQVY, the enrichment ratio was no more than 0.25.

SMLV: the enrichment ratio was determined as 8.65.

Take SNMN: the enrichment ratio came out at 22.4.

For WDCG, the enrichment ratio was no more than 0.25.

Regarding ILHC, the enrichment ratio is no more than 0.25.

As for DPIF, the enrichment ratio is no more than 0.25.

For DQYY, the enrichment ratio is no more than 0.25.

For the variant PEHQ, the enrichment ratio was no more than 0.25.

In the case of RDKY, the enrichment ratio is no more than 0.25.

Take KFCE: the enrichment ratio is no more than 0.25.

Regarding QICM, the enrichment ratio was no more than 0.25.

With DWWQ, the enrichment ratio is no more than 0.25.

As for DNKV, the enrichment ratio was no more than 0.25.

As for EMWQ, the enrichment ratio was no more than 0.25.

As for FFNT, the enrichment ratio is no more than 0.25.

Turning to NEQE, the enrichment ratio was no more than 0.25.

Take WLFN: the enrichment ratio is no more than 0.25.

Regarding WFQH, the enrichment ratio was no more than 0.25.

For the variant EIFK, the enrichment ratio is no more than 0.25.

Take GYGI: the enrichment ratio is no more than 0.25.

Consider DDTY, for which the enrichment ratio was no more than 0.25.

Turning to GTSV, the enrichment ratio was 0.71.

With KLPT, the enrichment ratio is no more than 0.25.

TCAN: the enrichment ratio was 25.6.

As for QHQL, the enrichment ratio was no more than 0.25.

Turning to RALE, the enrichment ratio was no more than 0.25.

Regarding SEQV, the enrichment ratio is 4.26.

With SGFN, the enrichment ratio is no more than 0.25.

Regarding YQTV, the enrichment ratio was no more than 0.25.

With VMHK, the enrichment ratio worked out at 2.31.

Take DKNT: the enrichment ratio is no more than 0.25.

As for FKND, the enrichment ratio was no more than 0.25.

As to NFII, the enrichment ratio was no more than 0.25.

Regarding QWRL, the enrichment ratio was no more than 0.25.

In the case of VGTF, the enrichment ratio was no more than 0.25.

Consider KFPQ, for which the enrichment ratio is no more than 0.25.

Consider LHTT, for which the enrichment ratio is no more than 0.25.

Take SSWV: the enrichment ratio amounted to 0.518.

Turning to GHPV, the enrichment ratio is no more than 0.25.

As for NSFI, the enrichment ratio is no more than 0.25.

FVYH: the enrichment ratio is no more than 0.25.

Turning to SRMM, the enrichment ratio worked out at 1.64.

In the case of GRIH, the enrichment ratio is no more than 0.25.

Consider KYDC, for which the enrichment ratio was no more than 0.25.

As to YHTG, the enrichment ratio came to 6.02.

LWWY: the enrichment ratio was no more than 0.25.

For the variant AMSR, the enrichment ratio worked out at 0.608.

Turning to WHPF, the enrichment ratio was no more than 0.25.

In the case of HDDW, the enrichment ratio was no more than 0.25.

FPDP: the enrichment ratio was no more than 0.25.

Take HEMW: the enrichment ratio was no more than 0.25.

For the variant VKSF, the enrichment ratio is no more than 0.25.

Take LGME: the enrichment ratio was no more than 0.25.

VTCP: the enrichment ratio was no more than 0.25.

Turning to HDEF, the enrichment ratio is no more than 0.25.

With LEPL, the enrichment ratio is no more than 0.25.

As to VPKK, the enrichment ratio is no more than 0.25.

As to ANAL, the enrichment ratio is 8.66.

On to HQDQ, for which the enrichment ratio is no more than 0.25.

As to YRLG, the enrichment ratio was no more than 0.25.

With GGDD, the enrichment ratio was no more than 0.25.

On to KWFA, for which the enrichment ratio was no more than 0.25.

As to PKPN, the enrichment ratio is no more than 0.25.

Consider EMPH, for which the enrichment ratio was no more than 0.25.

For the variant FWIY, the enrichment ratio was no more than 0.25.

Regarding WNWD, the enrichment ratio was no more than 0.25.

As to LDYM, the enrichment ratio is no more than 0.25.

PWQH: the enrichment ratio was no more than 0.25.

For the variant LHLK, the enrichment ratio was no more than 0.25.

Regarding RFRI, the enrichment ratio was no more than 0.25.

As to RCGN, the enrichment ratio was no more than 0.25.

As for LSEP, the enrichment ratio was no more than 0.25.

As for DDGR, the enrichment ratio was no more than 0.25.

For the variant GDSQ, the enrichment ratio was no more than 0.25.

Turning to DMVE, the enrichment ratio is no more than 0.25.

On to WNVL, for which the enrichment ratio is no more than 0.25.

Take GAHY: the enrichment ratio is no more than 0.25.

With WMVT, the enrichment ratio is no more than 0.25.

For the variant YCPM, the enrichment ratio is no more than 0.25.

With RGHQ, the enrichment ratio is no more than 0.25.

LRHY: the enrichment ratio was no more than 0.25.

With RPNR, the enrichment ratio was no more than 0.25.

Consider FNRS, for which the enrichment ratio was no more than 0.25.

On to WPPT, for which the enrichment ratio was no more than 0.25.

With VKPH, the enrichment ratio was no more than 0.25.

Consider YIDP, for which the enrichment ratio is no more than 0.25.

For the variant VPCF, the enrichment ratio was no more than 0.25.

Regarding PWSL, the enrichment ratio was no more than 0.25.

As for KNWH, the enrichment ratio was no more than 0.25.

Consider RVLK, for which the enrichment ratio was no more than 0.25.

On to ETPP, for which the enrichment ratio was no more than 0.25.
